The values that follow come from article PMC12820563.

The list shows a part of the results. The list includes weakly bound sequences.

The test deals with T1, MBP-FoxP3dN (UniProt Q99JB6).
T1 sequence: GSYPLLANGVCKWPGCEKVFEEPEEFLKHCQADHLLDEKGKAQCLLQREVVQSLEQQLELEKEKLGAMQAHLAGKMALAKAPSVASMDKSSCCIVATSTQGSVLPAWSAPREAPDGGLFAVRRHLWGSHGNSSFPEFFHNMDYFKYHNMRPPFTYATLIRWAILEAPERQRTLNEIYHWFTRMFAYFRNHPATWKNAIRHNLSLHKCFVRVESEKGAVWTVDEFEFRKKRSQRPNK
As to the kind of experiment: PD-seq (MBP pull-down with sequencing). As to conditions: 20 mM Tris-HCl pH 7.5, 100 mM NaCl, 1.5 mM MgCl2, 0.4 uM protein, 0.1 uM dsDNA library, 30 min, room temperature, amylose pull-down; high values mean tight binding; double strand, one strand shown.
For the sequence “GATGATTGTTCTCCCAGCTGATGAATTTACGTTGTCGAGTAAACAAATTTTCCTAATCTTTCTGTTCAAGCGCCATCTAC”, the binding signal (RPM ratio (pull-down/input)) came out at 0.962.

As to “GATGATTGTTCTCCCAGCTGATGAATTAGCTAGGTCGAGTAAACAAATTTTCCTAATCTTTCTGTTCAAGCGCCATCTAC”, the binding signal (RPM ratio (pull-down/input)) worked out at 0.392.

Take “GATGATTGTTCTCCCAGCTGATGAATTGAATCGTTCGAGTAAACAAATTTTCCTAATCTTTCTGTTCAAGCGCCATCTAC”: the binding signal (RPM ratio (pull-down/input)) stood at 0.421.

For the sequence “GATGATTGTTCTCCCAGCTGATGAATTTTGTACCTCGAGTAAACAAATTTTCCTAATCTTTCTGTTCAAGCGCCATCTAC”, the binding signal (RPM ratio (pull-down/input)) was found to be 2.04.

Regarding “GATGATTGTTCTCCCAGCTGATGAATTAGCCGATTCGAGTAAACAAATTTTCCTAATCTTTCTGTTCAAGCGCCATCTAC”, the binding signal (RPM ratio (pull-down/input)) was 0.287.

Turning to “GATGATTGTTCTCCCAGCTGATGAATTCACGAGTTCGAGTAAACAAATTTTCCTAATCTTTCTGTTCAAGCGCCATCTAC”, the binding signal (RPM ratio (pull-down/input)) amounted to 0.381.

Turning to “GATGATTGTTCTCCCAGCTGATGAATTACAGGTTTCGAGTAAACAAATTTTCCTAATCTTTCTGTTCAAGCGCCATCTAC”, the binding signal (RPM ratio (pull-down/input)) came to 0.581.

In the case of “GATGATTGTTCTCCCAGCTGATGAATTTCTAGATTCGAGTAAACAAATTTTCCTAATCTTTCTGTTCAAGCGCCATCTAC”, the binding signal (RPM ratio (pull-down/input)) stood at 0.247.

As for “GATGATTGTTCTCCCAGCTGATGAATTACTGCATTCGAGTAAACAAATTTTCCTAATCTTTCTGTTCAAGCGCCATCTAC”, the binding signal (RPM ratio (pull-down/input)) was found to be 6.01.

Consider “GATGATTGTTCTCCCAGCTGATGAATTACAGAGTTCGAGTAAACAAATTTTCCTAATCTTTCTGTTCAAGCGCCATCTAC”, for which the binding signal (RPM ratio (pull-down/input)) was determined as 0.414.

As for “GATGATTGTTCTCCCAGCTGATGAATTTGCGCTATCGAGTAAACAAATTTTCCTAATCTTTCTGTTCAAGCGCCATCTAC”, the binding signal (RPM ratio (pull-down/input)) was 1.33.

“GATGATTGTTCTCCCAGCTGATGAATTTCCTACGTCGAGTAAACAAATTTTCCTAATCTTTCTGTTCAAGCGCCATCTAC”: the binding signal (RPM ratio (pull-down/input)) is 0.26.

Turning to “GATGATTGTTCTCCCAGCTGATGAATTGCACCGATCGAGTAAACAAATTTTCCTAATCTTTCTGTTCAAGCGCCATCTAC”, the binding signal (RPM ratio (pull-down/input)) turned out to be 0.71.

“GATGATTGTTCTCCCAGCTGATGAATTCCGTATTTCGAGTAAACAAATTTTCCTAATCTTTCTGTTCAAGCGCCATCTAC”: the binding signal (RPM ratio (pull-down/input)) was determined as 2.56.

In the case of “GATGATTGTTCTCCCAGCTGATGAATTCTCGCCCTCGAGTAAACAAATTTTCCTAATCTTTCTGTTCAAGCGCCATCTAC”, the binding signal (RPM ratio (pull-down/input)) came out at 0.446.

Regarding “GATGATTGTTCTCCCAGCTGATGAATTAAGCCGATCGAGTAAACAAATTTTCCTAATCTTTCTGTTCAAGCGCCATCTAC”, the binding signal (RPM ratio (pull-down/input)) was found to be 0.427.

“GATGATTGTTCTCCCAGCTGATGAATTACACCGTTCGAGTAAACAAATTTTCCTAATCTTTCTGTTCAAGCGCCATCTAC”: the binding signal (RPM ratio (pull-down/input)) was 0.568.

In the case of “GATGATTGTTCTCCCAGCTGATGAATTACATTGCTCGAGTAAACAAATTTTCCTAATCTTTCTGTTCAAGCGCCATCTAC”, the binding signal (RPM ratio (pull-down/input)) was determined as 0.881.

Consider “GATGATTGTTCTCCCAGCTGATGAATTGGCAACCTCGAGTAAACAAATTTTCCTAATCTTTCTGTTCAAGCGCCATCTAC”, for which the binding signal (RPM ratio (pull-down/input)) is 1.43.

As for “GATGATTGTTCTCCCAGCTGATGAATTGGTCCGCTCGAGTAAACAAATTTTCCTAATCTTTCTGTTCAAGCGCCATCTAC”, the binding signal (RPM ratio (pull-down/input)) turned out to be 0.274.

“GATGATTGTTCTCCCAGCTGATGAATTACACATATCGAGTAAACAAATTTTCCTAATCTTTCTGTTCAAGCGCCATCTAC”: the binding signal (RPM ratio (pull-down/input)) amounted to 0.87.

Regarding “GATGATTGTTCTCCCAGCTGATGAATTGTCAATGTCGAGTAAACAAATTTTCCTAATCTTTCTGTTCAAGCGCCATCTAC”, the binding signal (RPM ratio (pull-down/input)) is 0.491.

As to “GATGATTGTTCTCCCAGCTGATGAATTTGGGTGCTCGAGTAAACAAATTTTCCTAATCTTTCTGTTCAAGCGCCATCTAC”, the binding signal (RPM ratio (pull-down/input)) was determined as 0.727.

In the case of “GATGATTGTTCTCCCAGCTGATGAATTAAGTATGTCGAGTAAACAAATTTTCCTAATCTTTCTGTTCAAGCGCCATCTAC”, the binding signal (RPM ratio (pull-down/input)) was found to be 2.38.

Turning to “GATGATTGTTCTCCCAGCTGATGAATTACGGTGCTCGAGTAAACAAATTTTCCTAATCTTTCTGTTCAAGCGCCATCTAC”, the binding signal (RPM ratio (pull-down/input)) came to 0.603.

On to “GATGATTGTTCTCCCAGCTGATGAATTCGTGACTTCGAGTAAACAAATTTTCCTAATCTTTCTGTTCAAGCGCCATCTAC”, for which the binding signal (RPM ratio (pull-down/input)) is 0.606.

Consider “GATGATTGTTCTCCCAGCTGATGAATTCATGTTATCGAGTAAACAAATTTTCCTAATCTTTCTGTTCAAGCGCCATCTAC”, for which the binding signal (RPM ratio (pull-down/input)) stood at 1.28.

For “GATGATTGTTCTCCCAGCTGATGAATTTCGGGGCTCGAGTAAACAAATTTTCCTAATCTTTCTGTTCAAGCGCCATCTAC”, the binding signal (RPM ratio (pull-down/input)) is 0.284.

For the sequence “GATGATTGTTCTCCCAGCTGATGAATTAGTAGAATCGAGTAAACAAATTTTCCTAATCTTTCTGTTCAAGCGCCATCTAC”, the binding signal (RPM ratio (pull-down/input)) was 0.317.

Take “GATGATTGTTCTCCCAGCTGATGAATTCGTATACTCGAGTAAACAAATTTTCCTAATCTTTCTGTTCAAGCGCCATCTAC”: the binding signal (RPM ratio (pull-down/input)) worked out at 4.11.

Regarding “GATGATTGTTCTCCCAGCTGATGAATTTACGGGTTCGAGTAAACAAATTTTCCTAATCTTTCTGTTCAAGCGCCATCTAC”, the binding signal (RPM ratio (pull-down/input)) is 0.55.
